Source: patent US20260151501A1, “ANTIBODY-DRUG CONJUGATE COMPRISING ANTI-CLAUDIN-18.2 ANTIBODY, AND THERAPEUTIC USE THEREOF FOR CANCER” (ABTIS CO., LTD., priority 2022, published 2026)

Tests used:
[1] = test system: MIA PaCa-2˜CLDN18.2 cell line; test: Cell-based ELISA binding to MIA PaCa-2˜CLDN18.2 cells
Experimental: (§1) OD value measurement through ELISA was performed by measuring the absorbance at 450 nm using a UV-Vis spectrometer.
(§2) Four types of cell lines (MIA PaCa-2˜CLDN18.2, PATU8988S, parental MIA PaCa-2 (CLDN18.2-), and SNU601) were prepared. At this time, MIA PaCa-2˜CLDN18.2 and PATU8988S are CLDN18.2-positive pancreatic cancer cell lines. MIA PaCa-2 (CLDN18.2-) is a CLDN18.2-negative pancreatic cancer cell line. SNU601 is a CLDN18.2-positive gastric cancer cell line.
(§3) The prepared cell lines were cultured in DMEM containing 10% FBS and 1% penicillin/streptomycin (MIA PaCa-2˜CLDN18.2, MIA PaCa-2 (CLDN18.2-)), RPMI1640 containing 10% FBS and 1% penicillin/streptomycin (SNU601), and DMEM containing 5% FBS, 5% serum, 1% penicillin/streptomycin, and 2 mM L-glutamine (PATU8988S) in an incubator under the conditions of 37° C. and 5% CO2.
(§4) The prepared cell lines were plated on 96-well plates for culture, and then treated with each of antibody-A, ADC-A, antibody-B, and ADC-B. Thereafter, cell-based ELISA was performed, and OD values were measured.
(§5) The measured results were used for a regression analysis in GraphPad PRISM® 9.0 software to calculate EC50 and Bmax. The cell binding affinity of antibody-A, ADC-A, antibody-B, and ADC-B to each cell line was evaluated based on the calculated values.

PATU8988S cell line = test: Cytotoxicity (CellTiter-Glo cell viability), PATU8988S; format: cell-based; settings: PATU8988S (CLDN18.2+), pancreatic cancer
Experimental: To measure cell viability in cytotoxicity experiments, the measurement of luminescence using GloMax® Discover was used, and the measurement method was according to the equipment manual.
Four types of cell lines (MIA PaCa-2˜CLDN18.2, PATU8988S, parental MIA PaCa-2 (CLDN18.2-), SNU601, NUGC-4, and AGS) were prepared. At this time, MIA PaCa-2˜CLDN18.2 and PATU8988S are CLDN18.2-positive pancreatic cancer cell lines. MIA PaCa-2 (CLDN18.2-) is a CLDN18.2-negative pancreatic cancer cell line. SNU601 and NUGC-4 are CLDN18.2-positive gastric cancer cell lines. AGS is a CLDN18.2-negative gastric cancer cell line.
The prepared cell lines were cultured in DMEM containing 10% FBS and 1% penicillin/streptomycin (MIA PaCa-2˜CLDN18.2, MIA PaCa-2 (CLDN18.2-)), RPMI1640 containing 10% FBS and 1% penicillin/streptomycin (SNU601, NUGC-4, and AGS), and DMEM containing 5% FBS, 5% horse serum, 1% penicillin/streptomycin, and […] L-glutamine (PATU8988S) in an incubator under the conditions of 37° C. and 5% CO2. […]
Changes in cell viability according to treatment of each test substance were measured using the same method as the CellTiter-Glo manual.
The measured results were used for a regression analysis in GraphPad PRISM® 9.0 software to calculate IC50. The cytotoxicity of each test substance was evaluated based on the calculated values.

SNU601 cell line [2] = test: In vivo drug efficacy, SNU601 gastric cancer tumor model; set-up: species or system BALB/c nude mouse; settings: for Tumor weight (mean ± standard deviation): Day 28 after first administration
Experimental: The SNU601 cell line, which is a CLDN18.2-positive gastric cancer cell line, was cultured in an RPMI culture solution containing 10% FBS and 1% penicillin/streptomycin in an incubator under the conditions of 37° C. and 5% CO2. The SNU601 cell line was regularly sub-cultured once a week through trypsin-ethylenediaminetetraacetic acid (EDTA) treatment.
For tumor development, the SNU601 cell line (1×10^7) was mixed with serum-free medium and Matrigel, and the resulting mixture was subcutaneously inoculated into the left flank of each BALB/c nude mouse (purchased from Charles River Laboratories Japan Inc.). The mice were randomly assigned to eight groups (G1 to G8) on the basis that the average tumor volume in each group reached about 155 mm^3.
All animals were observed twice a day for mortality, abnormal symptoms, pain, and signs of stress, and once a day for clinical signs. The changes in body weight and the tumor volume were measured three times a week, and the tumor weight was determined after autopsy.
The tumor volume, tumor difference, and tumor growth inhibition were calculated as follows: […]
Tf is the last tumor volume measured before autopsy, and Ti is the first tumor volume measured.
Numerical data regarding the study was calculated as mean and standard deviation. Group variances were compared using the Bartlett's test at a 0.05 significance level for each parameter. When the difference between group variances was not significant, a parametric one-way analysis of variance (ANOVA) was performed. When a significant difference between means was indicated by ANOVA (p≤0.05), group mean comparison was performed between the control and each treatment group using the Dunnett's test. […] When significance was found by the Kruskal-Wallis test (p≤0.05), the significance of the difference between the control and each treatment group was assessed using the Dunn's test. Significance was reported at the levels of 0.05, 0.01 and 0.001 for the comparison of each group. All statistical analyses were performed using GraphPad PRISM® Version 5.0.

SNU601 cell line [3] = test: Cell-based ELISA binding to SNU601 cells; settings: SNU601 (CLDN18.2+)
Experimental: as §1, §2, §3, §4, §5

[4] = Day 1, 2 mg/kg intravenous injection once/day 1 (G2, G8)
[5] = Day 8, 2 mg/kg intravenous injection once/day 1 (G2, G8)
[6] = Day 15, 2 mg/kg intravenous injection once/day 1 (G2, G8)
[7] = Day 22, 2 mg/kg intravenous injection once/day 1 (G2, G8)
[8] = Day 28, 2 mg/kg intravenous injection once/day 1 (G2, G8)
[9] = 2 mg/kg intravenous injection once/day 1 (G2, G8)
[10] = Day 28, 1 mg/kg intravenous injection once/day 1 (G3, G4)
[11] = Day 28, 1 mg/kg intravenous injection twice/day 1 and day 7 (G5)
[12] = Day 28, 1.5 mg/kg intravenous injection once/day 1 (G6)
[13] = Day 28, 1.75 mg/kg intravenous injection once/day 1 (G7)

B1: Antibody-A: anti-claudin18.2 antibody with heavy chain of SEQ ID NO: 16 and light chain of SEQ ID NO: 17 (antibody)
heavy: QVQLVESGGGVVQPGRSLRLSCAASGFSLTTYGVHWVRQAPGKGLEWVAVIWAGGSTNYNSALMSRFTISRDNSKNTLYLQMNSLRAEDTAVYYCARAAYYGNGLDYWGQGTMVTVSS[… human IgG1 constant region …]
light: DIVMTQSPLSLPVTPGEPASISCKSSQTLLNSGNQKNYLTWYLQKPGQSPQLLIYWASTGESGVPDRFSGSGSGTDFTLKISRVEAEDVGVYYCQNAYFYPFTFGGGTKVEIKRTVAAPSVFIFPPSDEQLKSGTASVVCLLNNFYPREAKVQWKVDNALQSGNSQESVTEQDSKDSTYSLSSTLTLSKADYEKHKVYACEVTHQGLSSPVTKSFNRGEC
modifications: heavy chain of Claudin18.2 antibody; light chain of Claudin18.2 antibody
[1]
  Bmax: 3.534
PATU8988S cell line
  IC50: > 66.7 nM
SNU601 cell line [2]; [4]
  Tumor volume (mean ± standard deviation): 155.8 mm^3
SNU601 cell line [2]; [5]
  Tumor volume (mean ± standard deviation): 211.3 mm^3
SNU601 cell line [2]; [6]
  Tumor volume (mean ± standard deviation): 280.4 mm^3
SNU601 cell line [2]; [7]
  Tumor volume (mean ± standard deviation): 316.8 mm^3
SNU601 cell line [2]; [8]
  TGI (Tumor growth inhibition): 9.3%
  Tumor volume (mean ± standard deviation): 384.3 mm^3
SNU601 cell line [2]; [9]
  Tumor weight (mean ± standard deviation): 0.250 ± 0.092 g
SNU601 cell line [3]
  Bmax: 3.002

B2: ADC-A (conjugate)
heavy: B1 heavy
light: B1 light
SNU601 cell line [2]; Day 1, 1 mg/kg intravenous injection once/day 1 (G3, G4)
  Tumor volume (mean ± standard deviation): 155.9 mm^3
SNU601 cell line [2]; Day 1, 1 mg/kg intravenous injection twice/day 1 and day 7 (G5)
  Tumor volume (mean ± standard deviation): 155.7 mm^3
SNU601 cell line [2]; Day 1, 1.5 mg/kg intravenous injection once/day 1 (G6)
  Tumor volume (mean ± standard deviation): 155.2 mm^3
SNU601 cell line [2]; Day 1, 1.75 mg/kg intravenous injection once/day 1 (G7)
  Tumor volume (mean ± standard deviation): 155.2 mm^3
SNU601 cell line [2]; [4]
  Tumor volume (mean ± standard deviation): 155.9 mm^3
SNU601 cell line [2]; Day 8, 1 mg/kg intravenous injection once/day 1 (G3, G4)
  Tumor volume (mean ± standard deviation): 131.7 mm^3
SNU601 cell line [2]; Day 8, 1 mg/kg intravenous injection twice/day 1 and day 7 (G5)
  Tumor volume (mean ± standard deviation): 132.1 mm^3
SNU601 cell line [2]; Day 8, 1.5 mg/kg intravenous injection once/day 1 (G6)
  Tumor volume (mean ± standard deviation): 95.6 mm^3
SNU601 cell line [2]; Day 8, 1.75 mg/kg intravenous injection once/day 1 (G7)
  Tumor volume (mean ± standard deviation): 72.8 mm^3
SNU601 cell line [2]; [5]
  Tumor volume (mean ± standard deviation): 88.0 mm^3
SNU601 cell line [2]; Day 15, 1 mg/kg intravenous injection once/day 1 (G3, G4)
  Tumor volume (mean ± standard deviation): 132.8 mm^3
SNU601 cell line [2]; Day 15, 1 mg/kg intravenous injection twice/day 1 and day 7 (G5)
  Tumor volume (mean ± standard deviation): 95.3 mm^3
SNU601 cell line [2]; Day 15, 1.5 mg/kg intravenous injection once/day 1 (G6)
  Tumor volume (mean ± standard deviation): 78.8 mm^3
SNU601 cell line [2]; Day 15, 1.75 mg/kg intravenous injection once/day 1 (G7)
  Tumor volume (mean ± standard deviation): 26.5 mm^3
SNU601 cell line [2]; [6]
  Tumor volume (mean ± standard deviation): 62.2 mm^3
SNU601 cell line [2]; Day 22, 1 mg/kg intravenous injection once/day 1 (G3, G4)
  Tumor volume (mean ± standard deviation): 145.0 mm^3
SNU601 cell line [2]; Day 22, 1 mg/kg intravenous injection twice/day 1 and day 7 (G5)
  Tumor volume (mean ± standard deviation): 97.7 mm^3
SNU601 cell line [2]; Day 22, 1.5 mg/kg intravenous injection once/day 1 (G6)
  Tumor volume (mean ± standard deviation): 73.8 mm^3
SNU601 cell line [2]; Day 22, 1.75 mg/kg intravenous injection once/day 1 (G7)
  Tumor volume (mean ± standard deviation): 11.1 mm^3
SNU601 cell line [2]; [7]
  Tumor volume (mean ± standard deviation): 66.2 mm^3
SNU601 cell line [2]; [10]
  TGI (Tumor growth inhibition): 60.1%
  Tumor volume (mean ± standard deviation): 169.2 mm^3
SNU601 cell line [2]; [11]
  TGI (Tumor growth inhibition): 71.8%
  Tumor volume (mean ± standard deviation): 119.3 mm^3
SNU601 cell line [2]; [12]
  TGI (Tumor growth inhibition): 79.2%
  Tumor volume (mean ± standard deviation): 87.7 mm^3
SNU601 cell line [2]; [13]
  TGI (Tumor growth inhibition): 98.3%
  Tumor volume (mean ± standard deviation): 7.3 mm^3
SNU601 cell line [2]; [8]
  TGI (Tumor growth inhibition): 82.2%
  Tumor volume (mean ± standard deviation): 75.2 mm^3
SNU601 cell line [2]; 1 mg/kg intravenous injection once/day 1 (G3, G4)
  Tumor weight (mean ± standard deviation): 0.082 ± 0.020 g
SNU601 cell line [2]; 1 mg/kg intravenous injection twice/day 1 and day 7 (G5)
  Tumor weight (mean ± standard deviation): 0.047 ± 0.033 g
SNU601 cell line [2]; 1.5 mg/kg intravenous injection once/day 1 (G6)
  Tumor weight (mean ± standard deviation): 0.038 ± 0.012 g
SNU601 cell line [2]; 1.75 mg/kg intravenous injection once/day 1 (G7)
  Tumor weight (mean ± standard deviation): 0.002 ± 0.006 g
SNU601 cell line [2]; [9]
  Tumor weight (mean ± standard deviation): 0.027 ± 0.035 g
